Experimental data reported in article PMC4336329 (PLoS ONE, 2015).
Among all 310,000 compounds or so, about 2,200 (0.71%) showed an effect of 50% or more. Effects have a minus sign here. The list shows a part of the results.

target: human ether-à-go-go-related gene (hERG) potassium channel (human, UniProt Q12809); experiment: primary screen, population patch clamp on CHO cells stably expressing hERG
Sequence (Q12809 whole entry, looked up): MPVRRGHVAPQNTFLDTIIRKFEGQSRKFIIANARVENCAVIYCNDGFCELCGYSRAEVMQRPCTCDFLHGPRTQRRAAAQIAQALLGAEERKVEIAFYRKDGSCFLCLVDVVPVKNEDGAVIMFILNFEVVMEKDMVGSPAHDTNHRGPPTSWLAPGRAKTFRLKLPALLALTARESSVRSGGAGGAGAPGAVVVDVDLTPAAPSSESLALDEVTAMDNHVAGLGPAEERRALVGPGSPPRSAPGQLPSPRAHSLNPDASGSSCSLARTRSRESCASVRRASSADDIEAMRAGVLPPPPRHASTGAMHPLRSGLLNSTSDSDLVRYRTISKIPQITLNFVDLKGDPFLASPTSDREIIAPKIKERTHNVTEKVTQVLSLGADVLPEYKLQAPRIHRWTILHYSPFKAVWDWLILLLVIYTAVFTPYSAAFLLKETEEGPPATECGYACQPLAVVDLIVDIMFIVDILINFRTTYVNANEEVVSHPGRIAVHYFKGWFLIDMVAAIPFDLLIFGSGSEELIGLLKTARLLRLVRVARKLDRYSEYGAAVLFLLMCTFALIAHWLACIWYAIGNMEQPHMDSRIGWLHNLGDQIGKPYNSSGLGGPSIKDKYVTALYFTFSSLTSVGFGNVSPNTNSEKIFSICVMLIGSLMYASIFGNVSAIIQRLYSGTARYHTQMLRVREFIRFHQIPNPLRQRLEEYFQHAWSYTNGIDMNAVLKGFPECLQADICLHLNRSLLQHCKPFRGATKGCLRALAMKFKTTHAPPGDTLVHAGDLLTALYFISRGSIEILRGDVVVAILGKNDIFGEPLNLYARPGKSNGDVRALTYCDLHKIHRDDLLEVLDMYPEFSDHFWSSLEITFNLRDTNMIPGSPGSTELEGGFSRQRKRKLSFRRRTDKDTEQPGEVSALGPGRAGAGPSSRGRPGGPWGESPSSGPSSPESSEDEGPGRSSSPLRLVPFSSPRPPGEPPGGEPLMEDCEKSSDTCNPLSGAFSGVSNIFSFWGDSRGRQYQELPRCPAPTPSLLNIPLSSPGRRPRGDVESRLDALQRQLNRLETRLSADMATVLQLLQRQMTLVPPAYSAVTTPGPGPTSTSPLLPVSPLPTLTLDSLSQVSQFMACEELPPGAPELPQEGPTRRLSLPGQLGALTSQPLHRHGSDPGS

SMILES	hERG current change (%, negative = inhibition) at 1uM
Cc1cc2ccccn2c1C(=O)c1ccc(S(=O)(=O)N(C)C)cc1	8.68%
O=C(NCc1ccc(F)cc1)c1cc2n(n1)C(C(F)(F)F)CC(C1CC1)N2 (stereo not shown)	14.3%
CC(C)NS(=O)(=O)c1ccc(CCC(=O)NCc2ccc3c(c2)OCO3)cc1	6.97%
O=C(Nc1nnc(-c2ccccc2Cl)o1)c1ccc(S(=O)(=O)N2CCCCCC2)cc1	9.58%
CCOc1cc(/C=C\[N+](=O)[O-])ccc1OCC(=O)N1CCOCC1	-2.65%
CCN1CCN(c2cc(C)c3cc(NC(=O)c4ccncc4)ccc3n2)CC1	3.16%
COc1ccccc1CNc1n[nH]c(NCc2ccccc2OC)n1	1.8%
COc1cccc(-c2cc(C(=O)N3CCN(S(=O)(=O)c4ccccc4)CC3)[nH]n2)c1	-4.38%
Cc1ccc(CNC(=O)COC(=O)c2cnccn2)cc1	-7.53%
COc1ccccc1NC(=O)C1=C(C)Nc2nc3ccccc3n2C1c1cccs1 (stereo not shown)	-2.88%
COc1ccc(-c2cc(C(F)(F)F)nc(SCCC(=O)NCc3ccccc3)n2)cc1	-4.05%
CCOC(=O)N1CCC(N2C(=O)c3ccc(C(=O)NCCC(C)C)cc3C2=O)CC1	3.52%
Cc1cc(-c2ccc(C(C)C)c(S(=O)(=O)Nc3ccccn3)c2)on1	25.3%
CC1CN(CC(=O)NCc2ccc(F)cc2)CC(C)O1 (stereo not shown)	5.99%
CN1CC(C(=O)c2ccccc2)C(c2ccccc2)C1 (stereo not shown)	8.3%
S=C(NCCNC(=S)Nc1ccccc1Cl)Nc1ccccc1Cl	4.26%
Cc1ccc(OCCCn2c(=O)sc3ccccc32)cc1	14.2%
Cc1[nH]c(=O)c(C#N)c(C)c1CCC(=O)Nc1cc(S(C)(=O)=O)ccc1Cl	11.9%
CC1(C)CC(NC(=O)COc2ccc(Cl)cc2Cl)CC(C)(C)N1	5.84%
O=C(Nc1nc(-c2ccc(F)c(F)c2)cs1)c1cc([N+](=O)[O-])ccc1N1CCOCC1	15.1%
CCn1c(Cc2cccs2)nnc1SCC(=O)NC1CC1	-1.4%
O=C(Cn1c2c(sc1=O)C1c3ccccc3OCC1CS2)Nc1ccc(Cl)cc1 (stereo not shown)	9.64%

SMILES	hERG current change (%, negative = inhibition) at 1uM
O=C(Nc1cccc(Cl)c1)ON=C1c2ccccc2-c2ccccc21	-2.38%
COc1ccccc1-c1noc2ncnc(Nc3ccccc3C)c12	-10.1%
CC1CCN(c2ccc(C(=O)Nc3ccc4c(c3)OCO4)cc2[N+](=O)[O-])CC1	11%
O=C(CCCCCN1C(=O)c2ccccc2C1=O)NCc1ccco1	0.764%
Cc1nnc(NC(=O)CCNC(=O)c2ccccc2Cl)s1	4.88%
CC(=O)NCCc1nc2cc(NC(=O)c3cccc([N+](=O)[O-])c3)ccc2n1C	12.8%
COc1ccccc1-n1cc([C@@H]2C[C@H]3CN(c4ccccc4)C(=O)[C@]34CCCN24)cn1	-0.434%
O=C(COc1ccc(Cl)cc1Cl)N1CCNC1=O	-0.229%
O=c1cc(NS(=O)(=O)c2ccccc2)nc(SCc2c(Cl)cccc2Cl)[nH]1	15%
Cc1ccc(/C=C/c2nnc(-c3ccccc3)o2)cc1	10.2%
CC(=O)Nc1ccc(S(=O)(=O)N2CCN(CCCOc3cc(C)ccc3C)CC2)cc1	-19.5%
COc1cccc(CNC(=O)CCN2C(=O)[C@@H]3Cc4ccccc4CN3C2=O)c1	20.2%
Cc1ccc(S(=O)(=O)N(C)c2ccc(C(=O)Nc3cccnc3)cc2)cc1	18.8%
C/C(CC(=O)Nc1ccc(Cl)c(Cl)c1)=N\NC(N)=S	13.5%
CCN(CC)S(=O)(=O)c1cccc(-c2nnc(SCc3ncc(-c4ccccc4)o3)n2C)c1	-26.7%
COc1ccc2c(c1)C1(C)CC(C)(C)N2C(=O)N1c1ccccc1 (stereo not shown)	8.74%
O=C(NCCSc1ccccc1)c1ccccc1F	11.3%
COC(=O)CCc1c(C)nn(-c2ccccc2)c1C	2.29%
NC(=O)CSc1nnc(C2CC2)n1-c1ccccc1	14.7%
CCC12C(=O)C(CC)(C(c3ccccc3)=C1c1ccccc1)[C@@H]1C(=O)N(c3ccccc3)C(=O)C12 (stereo partly shown)	7.84%
CC(Oc1ccccc1)C(=O)Nc1nnc(S(=O)(=O)N(C)c2ccccc2)s1 (stereo not shown)	8.63%
COc1ccc(S(=O)(=O)N2CCC(C(=O)N3CCc4ccccc4C3)CC2)cc1	0.0728%

SMILES	hERG current change (%, negative = inhibition) at 1uM
CC1(C)CC2CC(C)(CN2CC(O)c2ccccc2)C1.O=C(O)C(=O)O (stereo not shown)	-28.2%
CC(C)c1ccc(S(=O)(=O)N2CCN(C(C)C(=O)Nc3ccccc3-c3ccccc3)CC2)cc1 (stereo not shown)	10.4%
O=[N+]([O-])c1ccc(-c2nnc([S-])n2-c2ccccc2)cc1.[Na+]	18.4%
COc1cccc(N2C(=O)CC(c3c[nH]c4ccccc34)C2=O)c1 (stereo not shown)	17.4%
CN(C)CCNc1nc(S(=O)(=O)c2ccccc2)c(Cl)s1	-7.51%
CCCOCn1cc(F)c(=O)[nH]c1=O	4.83%
COc1ccc(CN(C2CCCC2)S(=O)(=O)c2ccc(-n3cnnn3)cc2)cc1	0.683%
O=C(CCN1C(=O)[C@@H]2Cc3ccccc3CN2C1=O)NCc1ccc(Cl)cc1	-19.1%
O=C(NCc1ccc(Cl)cc1)c1cc2c(nc3sccn32)s1	8.37%
Cc1ccc(-c2nn(-c3ccccc3)cc2C(=O)NCC2CCCO2)cc1 (stereo not shown)	1.49%
O=C(CSc1nnc(COc2cccc3ccccc23)o1)N1c2ccccc2CCc2ccccc21	19.4%
CC(Oc1ccc(Cl)cc1)C(=O)Nc1sccc1C(N)=O (stereo not shown)	6.57%
CC(C)(C)C(=O)c1cn(CC(=O)NCc2ccco2)c2ccccc12	13.3%
O=C(NCc1nc2ccccc2[nH]1)c1cccc(S(=O)(=O)N2CCCCC2)c1	2.53%
CN1CCN(S(=O)(=O)c2cccc(S(=O)(=O)c3cccc(S(=O)(=O)N4CCN(C)CC4)c3)c2)CC1	2.64%
Cc1cc(NC(=O)CSc2ccc3nnc(CCNC(=O)c4ccccc4)n3n2)no1	15.4%
Cc1ccc(S(=O)(=O)NCCC(=O)NC2CCCC2)cc1	1.28%
CCCC1=[N+](CC(=O)c2ccc(Br)cc2)CCn2cccc21.[Br-]	14.3%
COc1cc(-c2nc3n(c(=O)c2C#N)CCS3)cc(OC)c1OC	10.6%
C=C1CSc2nc3ccccc3c(=O)n21	10.8%
Cc1ccc(NC(=O)CO/N=C(\N)c2nonc2N)cc1C	-1.41%
C/C(=N\O)c1ccn(S(=O)(=O)c2ccc(Cl)cc2)c1	14.2%

SMILES	hERG current change (%, negative = inhibition) at 1uM
CNC(=O)NC(=O)CSc1ccc(NC(C)=O)cc1	7.97%
CC(=O)c1ccc(S(=O)(=O)NCC(=O)N2CCN(C/C=C/c3ccccc3)CC2)cc1	-11.1%
Cc1ccc(-n2nc(C(=O)O)cc2-c2ccc(Cl)cc2)cc1	8.61%
COc1cc(/C=c2\s/c(=C(/C#N)C(=O)N3CCCC3)n(-c3ccccc3)c2=O)ccc1O	-5.84%
Cc1ccc(-n2c(-c3cccc(C)c3)n[nH]c2=S)cc1	12.2%
COc1ccc2cc(/C=N/NC(=O)c3ccc(CN(c4cccc(Cl)c4Cl)S(C)(=O)=O)cc3)c(Cl)nc2c1	10.8%
COc1ccc(S(=O)(=O)N(CC(=O)NCC2CCCO2)c2ccc(F)cc2)cc1OC (stereo not shown)	11.9%
O=C1N(CN2CCOCC2)c2ccccc2C12OCC(CCl)O2 (stereo not shown)	-12.7%
Cc1ccc(Cl)cc1NC(=O)c1cc(S(=O)(=O)N2CCOCC2)cn1C	6.17%
Cc1nc2c(sc3nc4c(cc32)COC(C)(C)C4)c(=O)n1CC(=O)NCc1ccco1	3.21%
CC(C)(C)n1nc(Cc2cccc3ccccc23)c(C#N)c1N	10.6%
O=C(NCCCN1CCCC1=O)c1ccc(OC(F)(F)F)cc1	12.5%
CCCC[C@H]1COCCS(=O)(=O)N1Cc1cccc([N+](=O)[O-])c1	0.874%
O=C(c1ccc(OC2CCN(C/C=C/c3ccc(F)cc3)CC2)cc1)N1CCCCC1	-19.2%
Cc1ccc(C2=[N+]([O-])C3(CCCCC/C3=N\O)N(O)C2(C)C)o1 (stereo not shown)	-1.74%
O=C(Nc1nccs1)c1ccc(COc2ccc(Cl)cc2)o1	6.13%
CCOC(=O)c1ccc(COC(=O)c2ccc(-c3nnc(-c4ccccc4)o3)cc2)o1	1.79%
CN(C)C1(CNC(=O)C2CCC(=O)N(Cc3ccc(Cl)cc3)C2)CCCCC1 (stereo not shown)	9.38%
CCOc1ccccc1N1CCN(C(=O)c2ccc3[nH]c4c(c3c2)CCCC4)CC1	16.6%
